The supplement of paper PMC8813932
Counter-ions that a name gives are not always drawn. ± gives the standard deviation of the averaged measurements. This is one part of the list. Many values rest on one well or one pass, so single values are uncertain.

Key:
Test in all cases: log2 surviving fraction relative to plate median (drug vs vehicle, or drug+dl922-947 vs dl922-947 alone); ovarian cancer lines: OVCAR4 is platinum-sensitive while Ov4Cis resists cisplatin and Ov4Carbo carboplatin; higher = more cell survival
Conditions in all cases: compound concentration: 10 uM, 192 h
OVCAR4 = test system: OVCAR4
Ov4Carbo = test system: Ov4Carbo
Ov4Cis = test system: Ov4Cis
[1] = dl922-947 oncolytic adenovirus co-treatment: MOI 10
[2] = dl922-947 oncolytic adenovirus co-treatment: none

CCCCc1oc2ccccc2c1C(=O)c1cc(I)c(OCCN(CC)CC)c(I)c1 [Amiodarone HCl]
log2 surviving fraction (OVCAR4; [1]): -2.96 ± 0.48 | log2 surviving fraction (OVCAR4; [2]): -1.87 ± 0.36 | log2 surviving fraction (Ov4Carbo; [1]): -2.92 | log2 surviving fraction (Ov4Carbo; [2]): -1.77 | log2 surviving fraction (Ov4Cis; [1]): -3.86 | log2 surviving fraction (Ov4Cis; [2]): -4.1

N[C@@H]1CN(c2c(F)cc3c(=O)c(C(=O)O)cn([C@@H]4C[C@@H]4F)c3c2Cl)CC12CC2 [Sitafloxacin hydrate]
log2 surviving fraction (OVCAR4; [1]): -0.0901 ± 0.053 | log2 surviving fraction (OVCAR4; [2]): -0.0268 ± 0.13 | log2 surviving fraction (Ov4Carbo; [1]): -0.617 | log2 surviving fraction (Ov4Carbo; [2]): -0.0717 | log2 surviving fraction (Ov4Cis; [1]): -0.384 | log2 surviving fraction (Ov4Cis; [2]): -0.772

CC(COc1ccccc1)N(CCCl)Cc1ccccc1 (stereo not drawn) [Phenoxybenzamine HCl]
log2 surviving fraction (OVCAR4; [1]): -0.464 ± 0.26 | log2 surviving fraction (OVCAR4; [2]): -0.374 ± 0.78 | log2 surviving fraction (Ov4Carbo; [1]): 0.557 | log2 surviving fraction (Ov4Carbo; [2]): 0.656 | log2 surviving fraction (Ov4Cis; [1]): -0.435 | log2 surviving fraction (Ov4Cis; [2]): -0.718

O=[N+]([O-])c1ccc([As](=O)(O)O)cc1 [Nitarsone]
log2 surviving fraction (OVCAR4; [1]): -1.23 ± 0.96 | log2 surviving fraction (OVCAR4; [2]): -0.556 ± 0.12 | log2 surviving fraction (Ov4Carbo; [1]): -0.301 | log2 surviving fraction (Ov4Carbo; [2]): -0.185 | log2 surviving fraction (Ov4Cis; [1]): -0.81 | log2 surviving fraction (Ov4Cis; [2]): -0.243

CN1[C@@H]2CC[C@H]1C[C@@H](OC(c1ccccc1)c1ccccc1)C2 [Benztropine mesylate]
log2 surviving fraction (OVCAR4; [1]): -3.21 ± 0.18 | log2 surviving fraction (OVCAR4; [2]): -1.91 ± 1.5 | log2 surviving fraction (Ov4Carbo; [1]): -2.77 | log2 surviving fraction (Ov4Carbo; [2]): -0.835 | log2 surviving fraction (Ov4Cis; [1]): -4.64 | log2 surviving fraction (Ov4Cis; [2]): -4.53

CN1Cc2c(N)cccc2C(c2ccccc2)C1 (stereo not drawn) [Nomifensine Maleate]
log2 surviving fraction (OVCAR4; [1]): -1.38 ± 0.37 | log2 surviving fraction (OVCAR4; [2]): -1.1 ± 0.82 | log2 surviving fraction (Ov4Carbo; [1]): -2.14 | log2 surviving fraction (Ov4Carbo; [2]): -0.62 | log2 surviving fraction (Ov4Cis; [1]): -1.73 | log2 surviving fraction (Ov4Cis; [2]): -0.42

CC/C(=C(\c1ccccc1)c1ccc(OCCN(C)C)cc1)c1ccccc1 [Tamoxifen Citrate (Nolvadex)]
log2 surviving fraction (OVCAR4; [1]): -3.58 ± 1.5 | log2 surviving fraction (OVCAR4; [2]): -2.58 ± 1.6 | log2 surviving fraction (Ov4Carbo; [1]): -3.33 | log2 surviving fraction (Ov4Carbo; [2]): -2.07 | log2 surviving fraction (Ov4Cis; [1]): -6.85 | log2 surviving fraction (Ov4Cis; [2]): -4.65

COCCCOc1cc(C[C@@H](C[C@H](N)[C@@H](O)C[C@H](C(=O)NCC(C)(C)C(N)=O)C(C)C)C(C)C)ccc1OC [Aliskiren hemifumarate]
log2 surviving fraction (OVCAR4; [1]): -0.555 ± 0.53 | log2 surviving fraction (OVCAR4; [2]): 0.0701 ± 0.34 | log2 surviving fraction (Ov4Carbo; [1]): 0.379 | log2 surviving fraction (Ov4Carbo; [2]): 0.384 | log2 surviving fraction (Ov4Cis; [1]): 0.755 | log2 surviving fraction (Ov4Cis; [2]): -0.0824

CC(=O)O[C@@]12CO[C@@H]1C[C@H](O)[C@@]1(C)C(=O)[C@H](O)C3=C(C)[C@@H](OC(=O)[C@H](O)[C@@H](NC(=O)OC(C)(C)C)c4ccccc4)C[C@@](O)([C@@H](OC(=O)c4ccccc4)[C@H]21)C3(C)C [Docetaxel (Taxotere)]
log2 surviving fraction (OVCAR4; [1]): -5.6 ± 0.34 | log2 surviving fraction (OVCAR4; [2]): -5.35 ± 6.5 | log2 surviving fraction (Ov4Carbo; [1]): -4.33 | log2 surviving fraction (Ov4Carbo; [2]): -8.76 | log2 surviving fraction (Ov4Cis; [1]): -4.01 | log2 surviving fraction (Ov4Cis; [2]): -6.42

CNS(=O)(=O)Cc1ccc2[nH]cc(CCN(C)C)c2c1 [Sumatriptan succinate]
log2 surviving fraction (OVCAR4; [1]): 0.717 ± 0.11 | log2 surviving fraction (OVCAR4; [2]): 0.477 ± 0.73 | log2 surviving fraction (Ov4Carbo; [1]): 1.31 | log2 surviving fraction (Ov4Carbo; [2]): 1.47 | log2 surviving fraction (Ov4Cis; [1]): 0.974 | log2 surviving fraction (Ov4Cis; [2]): 2.13

COc1ccc2c(c1OC)C(=O)O[C@@H]2[C@H]1c2c(cc3c(c2OC)OCO3)CCN1C [Noscapine HCl]
log2 surviving fraction (OVCAR4; [1]): -1.17 ± 0.65 | log2 surviving fraction (OVCAR4; [2]): -0.706 ± 0.068 | log2 surviving fraction (Ov4Carbo; [1]): -1.69 | log2 surviving fraction (Ov4Carbo; [2]): -0.724 | log2 surviving fraction (Ov4Cis; [1]): -0.0577 | log2 surviving fraction (Ov4Cis; [2]): -1.89

O=C1[C@H](CC[C@H](O)c2ccc(F)cc2)[C@@H](c2ccc(O)cc2)N1c1ccc(F)cc1 [Ezetimibe (Zetia)]
log2 surviving fraction (OVCAR4; [1]): -1.26 ± 0.96 | log2 surviving fraction (OVCAR4; [2]): -0.0754 ± 0.098 | log2 surviving fraction (Ov4Carbo; [1]): -2.91 | log2 surviving fraction (Ov4Carbo; [2]): -0.345 | log2 surviving fraction (Ov4Cis; [1]): -1.32 | log2 surviving fraction (Ov4Cis; [2]): 0.0284

CC(C)(C)C(=O)C(Oc1ccc(Cl)cc1)n1ccnc1 (stereo not drawn) [Climbazole]
log2 surviving fraction (OVCAR4; [1]): -0.824 ± 0.76 | log2 surviving fraction (OVCAR4; [2]): -0.958 ± 0.97 | log2 surviving fraction (Ov4Carbo; [1]): 1.02 | log2 surviving fraction (Ov4Carbo; [2]): 0.191 | log2 surviving fraction (Ov4Cis; [1]): -0.853 | log2 surviving fraction (Ov4Cis; [2]): -0.00153

CN1CCC(=C2c3ccccc3CCc3cccnc32)CC1 [Azatadine dimaleate]
log2 surviving fraction (OVCAR4; [1]): -0.967 ± 0.43 | log2 surviving fraction (OVCAR4; [2]): -0.597 ± 0.2 | log2 surviving fraction (Ov4Carbo; [1]): -0.0122 | log2 surviving fraction (Ov4Carbo; [2]): -0.595 | log2 surviving fraction (Ov4Cis; [1]): -0.58 | log2 surviving fraction (Ov4Cis; [2]): -0.796

Nc1cccc2c1C(=O)N(C1CCC(=O)NC1=O)C2=O (stereo not drawn) [Pomalidomide]
log2 surviving fraction (OVCAR4; [1]): 0.385 ± 0.091 | log2 surviving fraction (OVCAR4; [2]): 0.495 ± 0.2 | log2 surviving fraction (Ov4Carbo; [1]): -0.041 | log2 surviving fraction (Ov4Carbo; [2]): 0.0116 | log2 surviving fraction (Ov4Cis; [1]): 0.917 | log2 surviving fraction (Ov4Cis; [2]): 0.832

CCN1CC(CCN2CCOCC2)C(c2ccccc2)(c2ccccc2)C1=O (stereo not drawn) [Doxapram HCl]
log2 surviving fraction (OVCAR4; [1]): 0.423 ± 0.59 | log2 surviving fraction (OVCAR4; [2]): -0.00337 ± 0.052 | log2 surviving fraction (Ov4Carbo; [1]): 0.384 | log2 surviving fraction (Ov4Carbo; [2]): 0.393 | log2 surviving fraction (Ov4Cis; [1]): 0.607 | log2 surviving fraction (Ov4Cis; [2]): -0.114

CCN(CC)CC(=O)Nc1c(C)cccc1C [Lidocaine (Alphacaine)]
log2 surviving fraction (OVCAR4; [1]): -0.325 ± 0.16 | log2 surviving fraction (OVCAR4; [2]): 0.349 ± 0.4 | log2 surviving fraction (Ov4Carbo; [1]): -0.818 | log2 surviving fraction (Ov4Carbo; [2]): -0.668 | log2 surviving fraction (Ov4Cis; [1]): 0.473 | log2 surviving fraction (Ov4Cis; [2]): 0.644

O=C(c1ccccc1)c1ccc2n1CCC2C(=O)O (stereo not drawn) [Ketorolac (Toradol)]
log2 surviving fraction (OVCAR4; [1]): -0.238 ± 0.4 | log2 surviving fraction (OVCAR4; [2]): 0.366 ± 1.4 | log2 surviving fraction (Ov4Carbo; [1]): -1.17 | log2 surviving fraction (Ov4Carbo; [2]): 0.424 | log2 surviving fraction (Ov4Cis; [1]): 1.08 | log2 surviving fraction (Ov4Cis; [2]): 1.11
